# Measurements from the supplement of paper PMC8728848.
# Some of the results follow.
# B1: PfulAvr4 (Pseudocercospora fuligena) (protein)
# chain: HHHHHHDYKDDDDKTYVQDKTPAFVCPAADIKTTKCLGPKDCLYPSPKTCNGYIQCSPADDSYLTGIIHEMPCPSGLLWNDNKKWCDWPENTTCGLVKSAGATEVDATKQGPTPGKYHG
# Experiments:
# Experiment in all cases: glycan array binding signal (z-score within array); higher = stronger binding
# Details in all cases: glycan notation: IUPAC condensed, linker removed
# [1] = biological target: Fuc(a1-2)[Gal(a1-3)]Gal(b1-4)GlcNAc(b1-2)Man(a1-3)[Fuc(a1-2)[Gal(a1-3)]Gal(b1-4)GlcNAc(b1-2)Man(a1-6)]Man(b1-4)GlcNAc(b1-4)[Fuc(a1-6)]GlcNAc
# Method in brief: (§1)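 Glycan array binding is given as a within-array Z-score, which can be read as non-binding when negative. The arrays, 3228 of them, came from the Consortium for Functional Glycomics database and were retained only where the protein sequence was available. Z-scores were averaged across arrays of the same protein sequence at different concentrations or buffers and across linkers.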
# [2] = biological target: Fuc(a1-2)[Gal(a1-3)]Gal(b1-4)GlcNAc(b1-3)GalNAc
# Method in brief: as §1
# [3] = biological target: Fuc(a1-2)[Gal(a1-3)]Gal(b1-4)GlcNAc(b1-3)[Fuc(a1-2)[Gal(a1-3)]Gal(b1-4)GlcNAc(b1-6)]GalNAc
# Method in brief: as §1
# [4] = biological target: Fuc(a1-2)[Gal(a1-3)]Gal(b1-4)GlcNAc(b1-6)GalNAc
# Method in brief: as §1
# [5] = biological target: Fuc(a1-2)[Gal(a1-3)]Gal(b1-4)[Fuc(a1-3)]Glc
# Method in brief: as §1
# [6] = biological target: Fuc(a1-2)[Gal(a1-3)]Gal(b1-4)[Fuc(a1-3)]GlcNAc
# Method in brief: as §1
# [7] = biological target: Fuc(a1-2)[Gal(a1-3)]Gal(b1-4)[Fuc(a1-3)]GlcNAc(b1-3)GalNAc
# Method in brief: as §1
# [8] = biological target: Fuc(a1-2)[Gal(a1-4)]Gal(b1-4)GlcNAc
# Method in brief: as §1
# [9] = biological target: Fuc(a1-2)[GalNAc(a1-3)]Gal
# Method in brief: as §1
# [10] = biological target: Fuc(a1-2)[GalNAc(a1-3)]Gal(b1-3)GalNAc(a1-3)[Fuc(a1-2)]Gal(b1-4)GlcNAc
# Method in brief: as §1
# [11] = biological target: Fuc(a1-2)[GalNAc(a1-3)]Gal(b1-3)GalNAc(b1-3)Gal(a1-4)Gal(b1-4)Glc
# Method in brief: as §1
# [12] = biological target: Fuc(a1-2)[GalNAc(a1-3)]Gal(b1-3)GlcNAc
# Method in brief: as §1
# [13] = biological target: Fuc(a1-2)[GalNAc(a1-3)]Gal(b1-3)GlcNAc(b1-2)Man(a1-3)[Fuc(a1-2)[GalNAc(a1-3)]Gal(b1-3)GlcNAc(b1-2)Man(a1-6)]Man(b1-4)GlcNAc(b1-4)GlcNAc
# Method in brief: as §1
# [14] = biological target: Fuc(a1-2)[GalNAc(a1-3)]Gal(b1-3)GlcNAc(b1-2)Man(a1-3)[Fuc(a1-2)[GalNAc(a1-3)]Gal(b1-3)GlcNAc(b1-2)Man(a1-6)]Man(b1-4)GlcNAc(b1-4)[Fuc(a1-6)]GlcNAc
# Method in brief: as §1
# [15] = biological target: Fuc(a1-2)[GalNAc(a1-3)]Gal(b1-3)GlcNAc(b1-3)GalNAc
# Method in brief: as §1
# [16] = biological target: Fuc(a1-2)[GalNAc(a1-3)]Gal(b1-3)GlcNAc(b1-6)GalNAc
# Method in brief: as §1
# [17] = biological target: Fuc(a1-2)[GalNAc(a1-3)]Gal(b1-4)Glc
# Method in brief: as §1
# [18] = biological target: Fuc(a1-2)[GalNAc(a1-3)]Gal(b1-4)GlcNAc
# Method in brief: as §1
# [19] = biological target: Fuc(a1-2)[GalNAc(a1-3)]Gal(b1-4)GlcNAc(b1-2)Man
# Method in brief: as §1
# [20] = biological target: Fuc(a1-2)[GalNAc(a1-3)]Gal(b1-4)GlcNAc(b1-2)Man(a1-3)[Fuc(a1-2)[GalNAc(a1-3)]Gal(b1-4)GlcNAc(b1-2)Man(a1-6)]Man(b1-4)GlcNAc(b1-4)GlcNAc
# Method in brief: as §1
# [21] = biological target: Fuc(a1-2)[GalNAc(a1-3)]Gal(b1-4)GlcNAc(b1-2)Man(a1-3)[Fuc(a1-2)[GalNAc(a1-3)]Gal(b1-4)GlcNAc(b1-2)Man(a1-6)]Man(b1-4)GlcNAc(b1-4)[Fuc(a1-6)]GlcNAc
# Method in brief: as §1
# [22] = biological target: Fuc(a1-2)[GalNAc(a1-3)]Gal(b1-4)GlcNAc(b1-3)Gal(b1-4)GlcNAc
# Method in brief: as §1
# [23] = biological target: Fuc(a1-2)[GalNAc(a1-3)]Gal(b1-4)GlcNAc(b1-3)Gal(b1-4)GlcNAc(b1-3)Gal(b1-4)GlcNAc
# Method in brief: as §1
# [24] = biological target: Fuc(a1-2)[GalNAc(a1-3)]Gal(b1-4)GlcNAc(b1-3)GalNAc
# Method in brief: as §1
# [25] = biological target: Fuc(a1-2)[GalNAc(a1-3)]Gal(b1-4)GlcNAc(b1-3)[Fuc(a1-2)[GalNAc(a1-3)]Gal(b1-4)GlcNAc(b1-6)]GalNAc
# Method in brief: as §1
# [26] = biological target: Fuc(a1-2)[GalNAc(a1-3)]Gal(b1-4)GlcNAc(b1-6)GalNAc
# Method in brief: as §1
# [27] = biological target: Fuc(a1-2)[GalNAc(a1-3)]Gal(b1-4)[Fuc(a1-3)]GlcNAc
# Method in brief: as §1
# [28] = biological target: Fuc(a1-2)[GalNAc(a1-3)]Gal(b1-4)[Fuc(a1-3)]GlcNAc(b1-3)GalNAc
# Method in brief: as §1
# [29] = biological target: Fuc(a1-2)[GalNAc(a1-4)]Gal(b1-4)GlcNAc
# Method in brief: as §1
# [30] = biological target: Fuc(a1-2)[GalNAc(b1-3)]Gal
# Method in brief: as §1
# Fuc(a1-3)GlcNAc = biological target: Fuc(a1-3)GlcNAc
# Method in brief: as §1
# [31] = biological target: Fuc(a1-3)[Gal(b1-4)]Glc6S
# Method in brief: as §1
# [32] = biological target: Fuc(a1-3)[Gal(b1-4)]GlcNAc
# Method in brief: as §1
# [33] = biological target: Fuc(a1-3)[Gal(b1-4)]GlcNAc(b1-2)Man
# Method in brief: as §1
# [34] = biological target: Fuc(a1-3)[Gal(b1-4)]GlcNAc(b1-2)Man(a1-3)[Fuc(a1-3)[Gal(b1-4)]GlcNAc(b1-2)Man(a1-6)]Man(b1-4)GlcNAc(b1-4)GlcNAc
# Method in brief: as §1
# [35] = biological target: Fuc(a1-3)[Gal(b1-4)]GlcNAc(b1-2)Man(a1-3)[Fuc(a1-3)[Gal(b1-4)]GlcNAc(b1-2)Man(a1-6)]Man(b1-4)GlcNAc(b1-4)[Fuc(a1-6)]GlcNAc
# Method in brief: as §1
# [36] = biological target: Fuc(a1-3)[Gal(b1-4)]GlcNAc(b1-3)Gal(b1-3)[Fuc(a1-4)]GlcNAc
# Method in brief: as §1
# [37] = biological target: Fuc(a1-3)[Gal(b1-4)]GlcNAc(b1-3)Gal(b1-4)[Fuc(a1-3)]GlcNAc
# Method in brief: as §1
# [38] = biological target: Fuc(a1-3)[Gal(b1-4)]GlcNAc(b1-3)Gal(b1-4)[Fuc(a1-3)]GlcNAc(b1-3)Gal(b1-4)[Fuc(a1-3)]GlcNAc
# Method in brief: as §1
# [39] = biological target: Fuc(a1-3)[Gal(b1-4)]GlcNAc(b1-3)GalNAc
# Method in brief: as §1
# [40] = biological target: Fuc(a1-3)[Gal(b1-4)]GlcNAc(b1-6)GalNAc
# Method in brief: as §1
# [41] = biological target: Fuc(a1-3)[Gal(b1-4)]GlcNAc(b1-6)[Gal(b1-3)GlcNAc(b1-3)]Gal(b1-4)Glc
# Method in brief: as §1
# [42] = biological target: Fuc(a1-3)[Gal(b1-4)]GlcNAc6S
# Method in brief: as §1
# [43] = biological target: Fuc(a1-3)[Gal3S(b1-4)]Glc
# Method in brief: as §1
# [44] = biological target: Fuc(a1-3)[Gal3S(b1-4)]GlcNAc
# Method in brief: as §1
binder,measurement,setting,value
B1,glycan array binding signal (z-score),[1],-0.144
same,glycan array binding signal (z-score),[2],-0.068
same,glycan array binding signal (z-score),[3],0.392
same,glycan array binding signal (z-score),[4],-0.112
same,glycan array binding signal (z-score),[5],-0.172
same,glycan array binding signal (z-score),[6],-0.096
same,glycan array binding signal (z-score),[7],-0.074
same,glycan array binding signal (z-score),[8],-0.096
same,glycan array binding signal (z-score),[9],-0.132
same,glycan array binding signal (z-score),[10],1.31
same,glycan array binding signal (z-score),[11],0.58
same,glycan array binding signal (z-score),[12],-0.064
same,glycan array binding signal (z-score),[13],-0.019
same,glycan array binding signal (z-score),[14],-0.104
same,glycan array binding signal (z-score),[15],-0.06
same,glycan array binding signal (z-score),[16],-0.192
same,glycan array binding signal (z-score),[17],-0.084
same,glycan array binding signal (z-score),[18],-0.151
same,glycan array binding signal (z-score),[19],-0.126
same,glycan array binding signal (z-score),[20],-0.027
same,glycan array binding signal (z-score),[21],-0.108
same,glycan array binding signal (z-score),[22],-0.209
same,glycan array binding signal (z-score),[23],-0.172
same,glycan array binding signal (z-score),[24],-0.069
same,glycan array binding signal (z-score),[25],-0.133
same,glycan array binding signal (z-score),[26],-0.129
same,glycan array binding signal (z-score),[27],-0.118
same,glycan array binding signal (z-score),[28],-0.034
same,glycan array binding signal (z-score),[29],-0.135
same,glycan array binding signal (z-score),[30],-0.09
same,glycan array binding signal (z-score),Fuc(a1-3)GlcNAc,-0.152
same,glycan array binding signal (z-score),[31],0.087
same,glycan array binding signal (z-score),[32],-0.091
same,glycan array binding signal (z-score),[33],-0.099
same,glycan array binding signal (z-score),[34],-0.13
same,glycan array binding signal (z-score),[35],-0.065
same,glycan array binding signal (z-score),[36],-0.081
same,glycan array binding signal (z-score),[37],0.018
same,glycan array binding signal (z-score),[38],-0.125
same,glycan array binding signal (z-score),[39],0.04
same,glycan array binding signal (z-score),[40],0.008
same,glycan array binding signal (z-score),[41],-0.036
same,glycan array binding signal (z-score),[42],0.177
same,glycan array binding signal (z-score),[43],-0.078
same,glycan array binding signal (z-score),[44],-0.121
